Measurements: PubChem BioAssay AID485341 (National Center for Advancing Translational Sciences (NCATS), 2010)
Hit rate of the full screen: of about 330,000 compounds, about 1,700 (0.52%) were called active. The shares of active, inactive and inconclusive entries below differ from those in the screen. Calls come from the whole dose curve; as a rule, active = well fitted inhibition curve with a large enough effect; inconclusive = small, poorly fitted or top-dose-only effect; inactive = no such curve, though single readings can be large or run the other way. Where the call is inconclusive, the potency comes from a doubtful curve fit.

Biological target: Beta-lactamase (Escherichia coli (strain K12)) (UniProt P00811)
UniProt P00811, sequence (P00811 whole entry, looked up): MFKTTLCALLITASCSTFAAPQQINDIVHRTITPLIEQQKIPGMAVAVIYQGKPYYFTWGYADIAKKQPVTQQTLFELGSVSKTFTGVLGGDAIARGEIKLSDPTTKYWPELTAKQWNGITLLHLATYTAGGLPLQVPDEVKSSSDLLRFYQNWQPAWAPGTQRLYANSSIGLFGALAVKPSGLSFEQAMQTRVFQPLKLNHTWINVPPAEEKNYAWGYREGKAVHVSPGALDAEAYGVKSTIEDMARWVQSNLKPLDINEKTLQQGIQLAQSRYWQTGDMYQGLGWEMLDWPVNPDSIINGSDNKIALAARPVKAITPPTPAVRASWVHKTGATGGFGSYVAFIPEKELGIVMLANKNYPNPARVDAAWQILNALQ
Experiment: qHTS Inhibitors of AmpC Beta-Lactamase (assay without detergent); note: nearly all actives have a fitted effect of over 20% in size
Conditions: AmpC nitrocefin hydrolysis, absorbance 480 nm, 0.0001% Triton; series mostly up to 57.1 µM
Outline: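 20 mM phosphate pH 7.0 + 0.01% (detergent screen) or 0.0001% Triton X-100; 5.3 nM AmpC reagent; cpd preinc 15 min RT; nitrocefin (800 uM stock) to start; A480 q20 s × 4 min; Activity was normalised to no-enzyme and no-compound control wells.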
Potency is the fitted concentration of half-maximal effect; tags give direction and shape of the fitted curve.

| Structure (SMILES) | Potency |
| --- | --- |
| O=C(Nc1cccc(Cl)c1)c1cc(-c2ccco2)on1 | inactive |
| CCN1C(=O)/C(=C/c2ccc(N3CCCC3)cc2)NC1=S | active: 28.2 µM |
| O=C(NCc1cccnc1)c1cccc(C(F)(F)F)c1 | active: 0.316 µM |
| CCN(CC)S(=O)(=O)c1ccc(NC(=O)c2cc(-c3cccs3)nc3ccccc23)cc1 | inconclusive: 3.16 µM [inhibitor, full curve, poor fit] |
| CCCCN(CCCC)CCn1cnc2c([nH]c3ccc(OC)cc32)c1=O | active: 20 µM |
| COc1ccc(Cl)cc1C(=O)NCC(c1ccco1)N1CCCC1 (configuration not stated) | active: 0.158 µM |
| CCNS(=O)(=O)c1ccc(NC(=O)c2ccc(Cn3cc([N+](=O)[O-])cn3)o2)cc1 | inconclusive: 35.5 µM [inhibitor, single point] |
| O=C(NCc1ccccc1)c1cccc(S(=O)(=O)N2CCOCC2)c1 | inconclusive: 6.31 µM [inhibitor, single point] |
| N/C(=N\OC(=O)c1ccc2c(c1)OCO2)c1ccncc1 | inactive |
| O=c1[nH]nc(Cc2ccc(-c3cccc(Cl)c3)o2)c2ccccc12 | inconclusive: 6.31 µM [inhibitor, single point] |
| CCC1=NN2C(=N)/C(=C/c3ccc(OS(=O)(=O)c4ccccc4)cc3)C(=O)N=C2S1 | active: 28.2 µM |
| Cc1ccc(CSc2nc3ccncc3n2CC(=O)Nc2cc(C)cc(C)c2)cc1 | active: 7.08 µM |
| O=C1CC(C(=O)Nc2ccc(C(=O)N3CCOCC3)cc2)C2(CCCCC2)O1 (configuration not stated) | active: 5.01 µM |
| C=CCN(c1ccccc1)S(=O)(=O)c1cccc(C(=O)Nc2nc3ccccc3[nH]2)c1 | active: 10 µM |
| O=C(CSc1nnc(-c2ccc(F)cc2)c2ccccc12)Nc1cccc(Cl)c1 | inconclusive: 8.91 µM [inhibitor, full curve, poor fit] |
| CCOC(=O)N1CCN(C(=O)CN(Cc2ccccc2)S(C)(=O)=O)CC1 | inconclusive: 2.51 µM [inhibitor, partial curve, poor fit] |
| O=C(Nc1cccc(F)c1)NC1CCCc2ccccc21 (configuration not stated) | inconclusive: 20 µM [inhibitor, partial curve] |
| CCOc1ccc(NC(=O)Cn2nnc(C(=O)NCc3ccc(OC)cc3)c2N)cc1 | inactive |
| COc1cccc(/C=C2\N=C(C3CCCCC3)OC2=O)c1OC | inactive |
| CN(Cc1nccn1C)C(=O)c1cc(COc2ccc3ncccc3c2)on1 | inactive |
| O=C(c1ccc(Br)o1)N1CCN(c2ccc3nnc(-c4ccc(F)cc4)n3n2)CC1 | active: 0.562 µM |
| COc1cc(C(=O)NNC(=S)NC(=O)c2ccc(Cl)cc2)cc(OC)c1OC | inconclusive: 39.8 µM [inhibitor, single point] |
